{"source": "PubChem BioAssay AID485344", "about": "(National Center for Advancing Translational Sciences (NCATS), 2010)", "note": "About 6,900 (2%) of roughly 340,000 compounds were called active. Rule as the data show it: active = inhibition above about 30%; inactive = below that, where a call was filed. This is a selection; strong and weak results do not stand in their true shares. Entries without a call were filed so in the source.", "data": [{"biological_target": "D(2) dopamine receptor (Homo sapiens) (UniProt P14416)", "sequence (P14416 whole entry, looked up)": "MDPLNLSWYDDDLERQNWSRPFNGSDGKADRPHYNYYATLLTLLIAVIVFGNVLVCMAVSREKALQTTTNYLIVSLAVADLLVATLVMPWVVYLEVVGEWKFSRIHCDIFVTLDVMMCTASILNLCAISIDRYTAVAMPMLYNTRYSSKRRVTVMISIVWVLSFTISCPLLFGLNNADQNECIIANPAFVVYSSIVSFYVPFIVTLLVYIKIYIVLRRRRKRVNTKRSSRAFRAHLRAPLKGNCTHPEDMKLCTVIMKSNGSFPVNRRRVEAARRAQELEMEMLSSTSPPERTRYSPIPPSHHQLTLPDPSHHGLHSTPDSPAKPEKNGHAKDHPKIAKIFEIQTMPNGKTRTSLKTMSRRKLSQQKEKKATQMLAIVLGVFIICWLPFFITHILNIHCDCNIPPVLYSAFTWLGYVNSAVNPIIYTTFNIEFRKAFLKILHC", "test": "HTS Assay for Allosteric Antagonists of the Human D2 Dopamine Receptor: Primary Screen for Antagonists; also: 0% is about no effect", "settings": "HEK293 TREx D2 cells, calcium flux, dopamine EC80; at 10 µM; stronger effect = higher value", "how_it_was_run": "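Measurement of antagonist activity uses fluorescent calcium dye in inducible HEK293 T-REx D2 cells: 10 s baseline, compound addition with 180 s read, EC80 dopamine addition with a further 180 s read.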", "values": [{"compound": "CCOc1cccc(C(=O)Nc2ccc(S(=O)(=O)N(Cc3ccccc3)c3ccccc3)cc2)c1", "inhibition": "-12.1%"}, {"compound": "COc1cccc(-c2nc(SCc3cc(=O)c4ccc(C)c(C)c4[nH]3)n[nH]2)c1", "inhibition": "4.24%"}, {"compound": "CCOc1ccc(NC(=O)Cn2cc(C(=O)c3ccc(CC)cc3)c(=O)c3cc(C)ccc32)cc1", "inhibition": "-6.09%"}, {"compound": "COc1ccc(NC(=O)c2csc3c2CCCCC3)cc1", "inhibition": "-10.3%"}, {"compound": "Cc1ccc(Cc2nc3ccccc3nc2SCC(=O)NCCC(C)C)cc1", "inhibition": "-9.05%"}, {"compound": "Cc1ccc(Cc2c(C)nc3nc(SCC(=O)NC(C)c4ccccc4)nn3c2C)cc1", "note": "(stereo not drawn)", "inhibition": "-2.96%"}, {"compound": "CN1CCN(CCCNC(=O)c2cnn(-c3ccccc3)c2-n2cccc2)CC1", "inhibition": "-14.2%"}, {"compound": "O=c1c2sc3ccccc3c2n(Cc2cccc(C(F)(F)F)c2)c(=O)n1Cc1ccco1", "inhibition": "-1.52%"}, {"compound": "Cc1ccc(C)c(-c2nc(Cn3c(=O)cc(-c4ccccc4)c4c(C)nn(C)c43)c(C)o2)c1", "inhibition": "0.379%"}, {"compound": "CC(C)(C)C(=O)CSc1nc2ccsc2c(=O)n1Cc1ccccc1F", "inhibition": "14.8%"}, {"compound": "CCOc1ccccc1CNC(=O)c1ccc2nc(Cc3ccc(OC)cc3)oc2c1", "inhibition": "15.1%"}, {"compound": "O=C(Nc1cc(NC(=O)c2ccccc2Cl)ccc1Cl)c1ccccc1", "inhibition": "11.1%"}, {"compound": "O=C(NCc1cccc(F)c1)C1CCN(C(=O)c2sccc2-n2cccc2)CC1", "inhibition": "-9.4%"}, {"compound": "COc1ccc(CNC(=O)c2ccc(Cn3c(=O)c4cccn4c4cccnc43)cc2)cc1OC", "inhibition": "11.9%"}, {"compound": "COc1ccc(N2CCN(C(=O)CCNS(=O)(=O)c3ccc4c(c3)CCN4C(=O)C3CC3)CC2)cc1", "inhibition": "-6%"}, {"compound": "CCc1ccc(NC(=O)CSc2cn(CC(=O)N3CCCC3)c3ccccc23)cc1", "inhibition": "24.4%"}, {"compound": "CCOCCCNC(=O)NC(CCC(C)C)c1c(-n2cccc2)sc2c1CCN(C)C2", "note": "(stereo not drawn)", "inhibition": "6.64%"}, {"compound": "COc1ccccc1N1CCN(C(=O)CCS(=O)(=O)c2cc(Br)cc3c2N(C(=O)C2CC2)CC3)CC1", "inhibition": "4.46%"}, {"compound": "CCOC(=O)c1c(C)oc2nc(C)nc(N3CCN(c4ccccc4)CC3)c12", "inhibition": "-4.37%"}, {"compound": "O=C(Nc1ccc(F)cc1)c1cccn1-c1nnc(N2CCCCC2)s1", "inhibition": "1.93%"}, {"compound": "COc1ccc2oc(=O)c(C(=O)NCCc3c(C)[nH]c4ccc(Br)cc34)cc2c1", "inhibition": "9.88%"}, {"compound": "O=C(CSc1nnc(CNC(=O)c2ccccc2)n1-c1cccc(Cl)c1)Nc1ccccc1F", "inhibition": "-3.02%"}, {"compound": "Fc1ccccc1N1CCN(CCCNc2ccc3nncn3n2)CC1", "inhibition": "active: 90%"}, {"compound": "Cc1ccc(-c2csc(/C(C#N)=C/c3ccccc3Cl)n2)cc1", "inhibition": "8.83%"}, {"compound": "Cc1cn2c(=O)cc(COc3ccccc3NC(=O)c3ccccc3C)nc2s1", "inhibition": "1.86%"}, {"compound": "CCCNC(=O)c1cnc2sc(N3CCCCC3)nn2c1=O", "inhibition": "5.98%"}, {"compound": "Cc1ccc2cccc(NC(=O)c3ccc(-c4ccc(Br)cc4)o3)c2n1", "inhibition": "-4.96%"}, {"compound": "COc1cccc(N2C(=O)N(CC(=O)NCc3cccc(OC)c3OC)c3ccccc3S2(=O)=O)c1", "inhibition": "9.1%"}, {"compound": "CCc1ccc(-n2c(-c3ccccc3)c(C)n3c4c(=O)n(C)c(=O)n(C)c4nc23)cc1", "inhibition": "9.83%"}, {"compound": "NS(=O)(=O)c1ccc(CCNC(=O)c2nc(SCc3ccccc3F)ncc2Cl)cc1", "inhibition": "-11.3%"}, {"compound": "COc1cccc(C2C(C(=O)Nc3ccccc3OC)=C(C)Nc3nc4ccccc4n32)c1", "note": "(stereo not drawn)", "inhibition": "2.16%"}, {"compound": "CCc1ccccc1Nc1ncnc2c1nc1n2CCCC1", "inhibition": "-18.8%"}, {"compound": "Cc1cc(C)c2c(-n3cccc3)c(C(=O)NCCCN3CCCCC3C)sc2n1", "note": "(stereo not drawn)", "inhibition": "12.1%"}, {"compound": "COc1cc(-c2noc(-c3cc(C(C)C)[nH]n3)n2)cc(OC)c1OC", "inhibition": "5.31%"}, {"compound": "O=C1OC(N2CCN(c3ccccn3)CC2)c2ccccc21", "note": "(stereo not drawn)", "inhibition": "active: 33.8%"}, {"compound": "Cc1nn(S(=O)(=O)c2ccc(Cl)cc2)c(C)c1S(=O)(=O)N1CCCCCC1", "inhibition": "-15.9%"}, {"compound": "CCOC(=O)c1c(NC(=O)c2cc(=O)c3c(C)cc(C)cc3o2)sc(C(C)=O)c1C", "inhibition": "2.57%"}, {"compound": "CC(=O)Nc1nonc1-c1nnc(SCc2ccc(Cl)cc2)n1C", "inhibition": "1.27%"}, {"compound": "COc1ccc(CNc2nc(=S)[nH]c3cc(OC)c(OC)cc23)cc1", "inhibition": "active: 34%"}, {"compound": "COC(=O)c1ccccc1OCCN1CCCCCC1", "inhibition": "active: 38.9%"}, {"compound": "CNC(=O)COc1ccc(NC(=O)c2ccc(-c3nn(C)c(=O)c4ccccc34)cc2)cc1", "inhibition": "0.166%"}, {"compound": "CCn1c(SCc2ccccc2Cl)nc(=O)c2c(C(=O)OC)cc(C3CC3)nc21", "inhibition": "-0.986%"}, {"compound": "CC(C)NC(=O)C1CCN(C(=O)N2CCOc3ccc(Cl)cc32)CC1", "inhibition": "16%"}, {"compound": "Clc1ccc(CCNC(c2nnc(-c3ccccc3)o2)c2ccccc2Cl)cc1", "note": "(stereo not drawn)", "inhibition": "8.84%"}, {"compound": "Cc1ccc(-c2noc(-c3ccc(N4CCCCC4)c([N+](=O)[O-])c3)n2)cc1", "inhibition": "-3.61%"}, {"compound": "CCCOc1ccc(C(=O)Nc2cc(-c3nc4cc(C)cc(C)c4o3)ccc2C)cc1", "inhibition": "2.87%"}, {"compound": "CN1C(=O)c2ccccc2Sc2ccc(NC(=O)N3CCN(c4ccccc4F)CC3)cc21", "inhibition": "-17.7%"}, {"compound": "CCOc1cccc(C(=O)Nc2ccc3oc(-c4cccnc4)nc3c2)c1", "inhibition": "11.9%"}, {"compound": "CC(=C/c1ccc(C(C)C)cc1)/C=N/NC(=O)c1ccncc1", "inhibition": "active: 36.1%"}, {"compound": "CCCCOc1ccc(CNC(=O)c2cc3n(n2)CCCN(Cc2ccc(C)cc2)C3=O)cc1", "inhibition": "2.87%"}, {"compound": "COc1ccc(OCCn2c(C)nc3cc(C)c(C)cc32)cc1", "inhibition": "3.03%"}, {"compound": "CCOCc1nnc(NC(=O)c2ccc(OC)cc2)s1", "inhibition": "active: 32.9%"}, {"compound": "CCOC(=O)c1ccccc1NC(=O)n1ncc2cc(Cl)ccc21", "inhibition": "-11.6%"}, {"compound": "CCc1cccc(C)c1NC(=O)c1cc(S(=O)(=O)N2CCOCC2)cn1C", "inhibition": "-6.13%"}, {"compound": "Cc1noc(C)c1S(=O)(=O)Nc1ccc(C(=O)Nc2ccc(Br)cc2)cc1", "inhibition": "16.4%"}, {"compound": "COc1cc(NC(=O)CCn2cnc3ccccc3c2=O)cc(OC)c1", "inhibition": "7.36%"}, {"compound": "Cc1cc(C)cc(NC(=O)C2CCCN(c3ncccn3)C2)c1", "note": "(stereo not drawn)", "inhibition": "active: 50.1%"}, {"compound": "CCCn1c(=N)c(C(=O)NC2CCCC2)cc2c(=O)n3cccc(C)c3nc21", "inhibition": "-3.37%"}, {"compound": "COc1ccc(/C=C(/C#N)c2nc(-c3ccc(-c4ccccc4)cc3)cs2)cc1OC", "inhibition": "4.21%"}, {"compound": "COc1ccc(C2Nc3ccc(Br)cc3C(c3ccccc3)N2CC(=O)O)cc1", "note": "(stereo not drawn)", "inhibition": "active: 61.2%"}, {"compound": "COc1ccccc1C(=O)N1CCN(Cc2nc3cc([N+](=O)[O-])ccc3n2C)CC1", "inhibition": "active: 35.7%"}, {"compound": "COc1ccc(-c2c(C)nn3c(N4CCN(c5ccccc5)CC4)cc(C)nc23)cc1OC", "inhibition": "10.6%"}, {"compound": "COc1ccc(NC(=O)CC2C(=O)N(c3ccc(F)cc3)C(=O)N2Cc2ccc3c(c2)OCO3)cc1", "note": "(stereo not drawn)", "inhibition": "15.1%"}]}]}
